Reference: publication PMC4336329 (PLoS ONE, 2015)
The campaign covered roughly 310,000 compounds. About 2,200 (0.71%) showed an effect of 50% or more. Effects have a minus sign here. Some of the results follow.

Biological target: human ether-à-go-go-related gene (hERG) potassium channel (human, UniProt Q12809)
Assay: primary screen, population patch clamp on CHO cells stably expressing hERG

Sequence of human ether-à-go-go-related gene (hERG) potassium channel (Q12809 whole entry, looked up): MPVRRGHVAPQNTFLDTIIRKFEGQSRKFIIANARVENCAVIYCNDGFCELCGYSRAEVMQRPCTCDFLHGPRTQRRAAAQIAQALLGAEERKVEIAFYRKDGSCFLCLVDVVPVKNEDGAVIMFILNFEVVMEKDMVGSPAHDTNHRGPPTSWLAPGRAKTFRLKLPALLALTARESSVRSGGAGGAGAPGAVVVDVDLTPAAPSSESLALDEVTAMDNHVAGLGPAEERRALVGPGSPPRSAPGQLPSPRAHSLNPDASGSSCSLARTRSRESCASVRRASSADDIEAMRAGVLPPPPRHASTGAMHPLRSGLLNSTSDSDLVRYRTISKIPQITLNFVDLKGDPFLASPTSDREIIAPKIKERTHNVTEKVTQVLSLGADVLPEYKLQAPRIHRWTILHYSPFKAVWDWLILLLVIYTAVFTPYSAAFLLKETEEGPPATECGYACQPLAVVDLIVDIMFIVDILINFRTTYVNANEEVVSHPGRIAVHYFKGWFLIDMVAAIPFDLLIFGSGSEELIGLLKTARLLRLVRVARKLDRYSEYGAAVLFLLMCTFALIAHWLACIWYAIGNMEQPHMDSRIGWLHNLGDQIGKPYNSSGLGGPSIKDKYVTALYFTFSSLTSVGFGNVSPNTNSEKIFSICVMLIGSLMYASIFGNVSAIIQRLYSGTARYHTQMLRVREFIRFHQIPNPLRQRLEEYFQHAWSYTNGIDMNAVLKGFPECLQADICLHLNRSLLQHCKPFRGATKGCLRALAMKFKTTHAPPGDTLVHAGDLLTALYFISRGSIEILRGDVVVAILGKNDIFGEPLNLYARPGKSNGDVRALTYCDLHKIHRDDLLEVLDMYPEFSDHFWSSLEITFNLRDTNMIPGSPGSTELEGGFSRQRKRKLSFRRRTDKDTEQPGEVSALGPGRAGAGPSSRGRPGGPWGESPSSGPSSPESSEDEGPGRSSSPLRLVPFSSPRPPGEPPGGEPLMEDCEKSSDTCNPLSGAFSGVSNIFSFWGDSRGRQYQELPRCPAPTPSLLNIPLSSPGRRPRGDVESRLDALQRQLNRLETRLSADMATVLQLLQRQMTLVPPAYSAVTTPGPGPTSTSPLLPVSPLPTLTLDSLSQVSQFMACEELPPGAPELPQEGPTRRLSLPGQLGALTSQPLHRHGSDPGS

Going from `COc1ccc(OC)c(C2CC(=O)N3CN(c4cccc(Cl)c4)CSC3=C2C#N)c1` (centres unmarked) to `CCNC(=O)CC1C(=O)N(c2ccc(OC)cc2)C(=O)N1Cc1ccc(OC)cc1` (centres unmarked), the “hERG current change (%, negative = inhibition) at 1uM” value falls from 17.9% to 1.71%.

Compared with `CC(c1ccccc1F)n1cc(C(=O)NCCCn2ccnc2)nn1` (centres unmarked), `CCn1cc(C(=O)N[C@@H](CCSC)C(=O)NCCCn2ccnc2)c(=O)c2cc3c(cc21)OCO3` is higher in “hERG current change (%, negative = inhibition) at 1uM” value: 12.9% for the first, 16.1% for the second.

Going from `O=C(O)c1ccccc1N/C=C\[N+](=O)[O-]` to `Cc1ccccc1C(=O)NNS(=O)(=O)c1cccc([N+](=O)[O-])c1`, the “hERG current change (%, negative = inhibition) at 1uM” value falls from 20% to 19.2%.

Compared with `O=C(NCCc1ccccc1)C1CCN(c2nc3ccccc3o2)CC1`, `O=C(COc1ccccc1)N1CCN=C1SCc1ccccc1` is higher in “hERG current change (%, negative = inhibition) at 1uM” value: -6.95% for the first, 11.1% for the second.

First: CC(=O)Nc1ccc(SC[C@H](c2ccccc2)N2CCN(CCc3ccccc3)CCC2=O)cc1
Second: Cc1ccc(S[C@@H](CCN2CC[C@H](NC(=O)OCc3ccccc3)CCC2=O)c2ccccc2)cc1
The “hERG current change (%, negative = inhibition) at 1uM” value of the first is lower: -56% for the first, -2.91% for the second.

Going from `O=C1CCC(=O)N1OCCOc1ccccc1` to `CCOc1cccc(OCCOCCOc2ccccc2C(C)=O)c1`, the “hERG current change (%, negative = inhibition) at 1uM” value rises from 1.37% to 2.44%.

Going from `Cc1ccc(C(=O)C(=S)N2CCOCC2)cc1` to `O=C(NCCO)c1ccc(-c2nnc(N3CCOCC3)c3ccccc23)cc1`, the “hERG current change (%, negative = inhibition) at 1uM” value rises from 2.55% to 7.33%.

First: Cc1ccc(S(C)(=O)=N/C=C2\C(=O)c3sccc3N(C)S2(=O)=O)cc1 (centres unmarked)
Second: Cc1ccc(S(=O)(=O)NC(C(=O)O)c2ccccc2)cc1 (centres unmarked)
The “hERG current change (%, negative = inhibition) at 1uM” value of the first is lower: 5.76% for the first, 12.8% for the second.

Compared with `O=C(Cn1ccc([N+](=O)[O-])n1)NCc1ccco1`, `O=C(CN1C(=O)c2ccc([N+](=O)[O-])cc2C1=O)NCc1ccco1` is higher in “hERG current change (%, negative = inhibition) at 1uM” value: 13% for the first, 15.2% for the second.

Compared with `Nc1cc(=O)[nH]c(N)n1`, `Cc1nc(SCC(N)=O)c([N+](=O)[O-])[nH]1` is lower in “hERG current change (%, negative = inhibition) at 1uM” value: 11.1% for the first, -26.7% for the second.

First: CCCOc1ccc(Cc2c(Cl)nc(SC)nc2N(C)C)cc1
Second: COc1ccc(-c2cc(=O)c3cc(F)ccc3[nH]2)cc1
The “hERG current change (%, negative = inhibition) at 1uM” value of the first is higher: 12.8% for the first, 9.03% for the second.

First: COc1ccc(Cn2nnc3c(=O)[nH]c(C4CCCN(C(=O)c5ccccc5)C4)nc32)cc1 (centres unmarked)
Second: COc1ccc(C(=O)c2sc(Nc3ccccc3F)nc2N)cc1
The “hERG current change (%, negative = inhibition) at 1uM” value of the first is lower: 9.19% for the first, 13.1% for the second.

Going from `Cc1cccc(C)c1NC(=O)CN1C(=O)C2CC=CCC2C1=O` (centres unmarked) to `Cc1cccc(C)c1NC(=O)CN(C)c1ccc(C(F)(F)F)cn1`, the “hERG current change (%, negative = inhibition) at 1uM” value falls from 19.7% to 4.55%.

Going from `COc1ccc(C(=O)NNC(=O)c2ccc(S(=O)(=O)N3CCCCC3)cc2)cc1` to `COc1ccc(S(=O)(=O)Nc2nc3n(n2)C(c2ccc(Cl)cc2)CC(=O)N3)cc1` (centres unmarked), the “hERG current change (%, negative = inhibition) at 1uM” value rises from 11% to 13.5%.

Going from `Cc1cccc(-c2nsc(SCC(=O)Nc3ccc4c(c3)OCO4)n2)c1` to `Cc1nnc2sc(SCC(=O)Nc3ccc(Br)cc3)nn2c1=O`, the “hERG current change (%, negative = inhibition) at 1uM” value rises from -19.4% to 4.53%.

Going from `NC(=O)NC(CC(=O)NCCc1ccccn1)c1ccccc1Cl` (centres unmarked) to `O=C(NCc1cccnc1)Nc1ccccc1Cl`, the “hERG current change (%, negative = inhibition) at 1uM” value rises from 9.58% to 11.7%.

First: Cl.Cn1cccc1CNCC(O)c1ccccc1 (centres unmarked)
Second: CC(=O)n1nc(-c2ccccc2)nc1NCc1cccs1
The “hERG current change (%, negative = inhibition) at 1uM” value of the first is lower: -1.36% for the first, 7.45% for the second.

Compared with `Cc1cccc(NC(=O)CSc2nnc(Cn3nnc(-c4ccccc4)n3)n2-c2ccccc2)c1`, `O=c1c2ccccc2nc(-c2ccccc2)n1-c1ccncc1` is lower in “hERG current change (%, negative = inhibition) at 1uM” value: 1.59% for the first, -13% for the second.

Compared with `CC(C)CCNC(=O)CNC(=S)N(CCCN1CCOCC1)Cc1cccs1`, `O=C(NC(Cc1c[nH]c2ccccc12)C(=O)NCCCN1CCOCC1)c1cccs1` (centres unmarked) is lower in “hERG current change (%, negative = inhibition) at 1uM” value: -0.616% for the first, -26.8% for the second.

Compared with `COc1cc(CCCN[C@H](CN)Cc2ccccc2)cc(OC)c1OC`, `COc1cc(/C=C2\SC(N3CCc4ccccc4C3)=NC2=O)cc(OC)c1OC` is lower in “hERG current change (%, negative = inhibition) at 1uM” value: 8.36% for the first, 5.93% for the second.

Compared with `COc1ccc(N(CC(=O)Nc2cccnc2)S(=O)(=O)c2ccccc2)cc1Cl`, `CC(NC(=O)CN(c1ccc(Br)cc1)S(C)(=O)=O)c1ccccc1` (centres unmarked) is higher in “hERG current change (%, negative = inhibition) at 1uM” value: 4.2% for the first, 5.11% for the second.

First: COc1cccc(CNCc2ccccc2Br)c1OC.O=C(O)C(=O)O
Second: COc1cccc(OC)c1C(=O)OCC(=O)Nc1ccc(OC(F)(F)F)cc1
The “hERG current change (%, negative = inhibition) at 1uM” value of the first is higher: 11.2% for the first, -16.4% for the second.

Going from `CCC(=O)N1CCc2cc(S(=O)(=O)N3CCN(c4ccccc4)CC3)ccc21` to `CC1CCCCN1S(=O)(=O)c1ccc2c(c1)CCN2C(=O)C1CC1` (centres unmarked), the “hERG current change (%, negative = inhibition) at 1uM” value falls from 17.8% to 7.44%.

Compared with `Nc1c(S(=O)(=O)c2ccccc2)nnn1-c1ccccc1`, `Cn1cc(S(=O)(=O)NC(c2ccccc2)c2ccccc2)c(=O)n(C)c1=O` is higher in “hERG current change (%, negative = inhibition) at 1uM” value: 0.451% for the first, 3.54% for the second.

Compared with `CCCNC(=O)C(NS(=O)(=O)c1cccc2nsnc12)c1ccccc1` (centres unmarked), `CC(C)[C@H](NC(=O)N1c2ccccc2NC(=O)[C@@H]1C(C)C)C(=O)N[C@H](C(=O)O)c1ccccc1` is lower in “hERG current change (%, negative = inhibition) at 1uM” value: 13.8% for the first, -7.26% for the second.

Compared with `CCOc1ccc(OCC)c(NC(=O)C2CCCN(c3nc(C)cc(C)n3)C2)c1` (centres unmarked), `CCOc1ccccc1NCc1cc(=O)oc2cc(C)ccc12` is higher in “hERG current change (%, negative = inhibition) at 1uM” value: 2.53% for the first, 19.7% for the second.

First: C=CCNC(NC(=O)c1ccccc1)(C(=O)OCC)C(F)(F)F (centres unmarked)
Second: COC(=O)C(O)(c1cn(C)c2ccccc12)C(F)(F)F (centres unmarked)
The “hERG current change (%, negative = inhibition) at 1uM” value of the first is higher: 18.6% for the first, 13.1% for the second.

Compared with `COc1ccc(-c2[nH]c3ccccc3c2SCCNC(=O)c2cc3ccccc3oc2=O)cc1`, `CSc1ccc(CNc2cccc3ccccc23)cc1` is higher in “hERG current change (%, negative = inhibition) at 1uM” value: 10.3% for the first, 11.8% for the second.

First: COC(=O)[C@@H]1[C@@H](C)OC(=O)N[C@H]1c1ccccc1
Second: COc1ccccc1NC(=O)C1CCN(S(=O)(=O)c2ccc3c(c2)NC(=O)C(C)S3)CC1 (centres unmarked)
The “hERG current change (%, negative = inhibition) at 1uM” value of the first is lower: -8.26% for the first, 9.65% for the second.

Compared with `O=C(CSc1ccccn1)c1ccc(F)cc1`, `CC(C)c1ccc(NC(=S)N(C)CCc2ccccn2)cc1` is higher in “hERG current change (%, negative = inhibition) at 1uM” value: -21.5% for the first, 7.68% for the second.

Compared with `CC(C)N(C(=O)CSc1nnc(Cc2csc(Nc3ccccc3)n2)o1)C(C)C`, `CC(NC(=O)c1cc2ccccc2o1)c1cccs1` (centres unmarked) is lower in “hERG current change (%, negative = inhibition) at 1uM” value: 9.96% for the first, 8.94% for the second.

Going from `O=C(N/C(=C/c1ccc(Br)cc1)C(=O)N1CCCC1)c1ccccc1F` to `O=C(Cc1ccc(Cl)cc1)Nc1ccc(N2CCN(C(=O)c3ccco3)CC2)c(Cl)c1`, the “hERG current change (%, negative = inhibition) at 1uM” value rises from -27.2% to 14.1%.

Compared with `COc1ccc2oc(C(=O)N(CC(C)C)C3CCS(=O)(=O)C3)c(C)c2c1` (centres unmarked), `CCN(CC)C(=O)C1=C(C)NC(=O)NC1c1c(F)cccc1Cl` (centres unmarked) is higher in “hERG current change (%, negative = inhibition) at 1uM” value: -0.145% for the first, 3.88% for the second.

Compared with `CC(=O)Nc1ccc(NC(=O)C2CCCN2/C=C/C(=O)C(F)(F)F)cc1` (centres unmarked), `COC(=O)N/N=C/c1ccc(/C=N/NC(=O)OC)cc1` is higher in “hERG current change (%, negative = inhibition) at 1uM” value: 7.22% for the first, 7.63% for the second.

Compared with `COC(=O)N/N=C/c1cc(Cl)cc(Cl)c1OCc1ccc(F)cc1`, `NNC(=O)c1sccc1OCc1ccc(Cl)cc1Cl` is lower in “hERG current change (%, negative = inhibition) at 1uM” value: 13.7% for the first, 6.27% for the second.

Going from `NC(=O)c1nsc(C(=O)N(c2ccccc2)C(C(=O)NC2CCCCC2)c2ccc(O)cc2)c1N` (centres unmarked) to `CCOc1ccc(C(=O)COC(=O)c2c(-c3ccccc3)noc2C)cc1`, the “hERG current change (%, negative = inhibition) at 1uM” value rises from 6.54% to 7.82%.

Compared with `FC(F)(F)c1cnc(Oc2ccc(-c3nnco3)cc2)c(Cl)c1`, `CCOc1ccc(-c2csc(/C(C#N)=C\c3ccc(O)c([N+](=O)[O-])c3)n2)cc1` is higher in “hERG current change (%, negative = inhibition) at 1uM” value: 12.2% for the first, 16.1% for the second.

First: O=C(Nc1ccccc1C(=O)NCc1cccnc1)c1cccc([N+](=O)[O-])c1
Second: Cc1onc(-c2ccccc2)c1NC(=O)N(CCC(=O)O)Cc1ccccc1
The “hERG current change (%, negative = inhibition) at 1uM” value of the first is higher: 5.95% for the first, -1.54% for the second.

Going from `O=C1c2ccccc2C(=O)N1CC(=O)N1c2ccccc2Sc2ccccc21` to `c1ccc2[nH]c(CCCCc3nc4ccccc4[nH]3)nc2c1`, the “hERG current change (%, negative = inhibition) at 1uM” value falls from 4.08% to -0.603%.

First: OCC[C@@H]1C[C@@H](O)[C@H](O)[C@@]2(CCc3ccccc3CO2)O1
Second: Cc1cccc(-n2ncc3c(NC4CCCCC4)ncnc32)c1
The “hERG current change (%, negative = inhibition) at 1uM” value of the first is higher: 13.8% for the first, -1.9% for the second.

First: COc1cccc(/C=N/NC(=O)CC2C(=O)NN=C2C)c1OC (centres unmarked)
Second: COc1ccc(C)cc1S(=O)(=O)n1ccnc1C
The “hERG current change (%, negative = inhibition) at 1uM” value of the first is lower: 6.72% for the first, 6.75% for the second.

Going from `COn1c(=S)[nH]c2ccccc2c1=O` to `COCCn1nnnc1C(c1cc2ccc(C)cc2[nH]c1=O)N(Cc1ccco1)Cc1cccs1` (centres unmarked), the “hERG current change (%, negative = inhibition) at 1uM” value falls from 4.54% to -6.06%.

Going from `Cc1occc1C(=O)N1CCC2(CC1)OCCO2` to `Cc1nc(N2CCN(C(=O)c3ccco3)CC2)c2c3c(sc2n1)CCCC3`, the “hERG current change (%, negative = inhibition) at 1uM” value falls from 4.11% to -23.2%.

First: CC1(C)SCC(C(=O)O)NC1=O (centres unmarked)
Second: CCOC(=O)c1c(NC(=O)/C=C/c2ccc3c(c2)OCO3)sc(C)c1CC
The “hERG current change (%, negative = inhibition) at 1uM” value of the first is higher: 22.8% for the first, 18.6% for the second.

With `Cc1ccc(C2NC(c3ccc(C)cc3)C(C)C(=NO)C2C)cc1` (centres unmarked) the “hERG current change (%, negative = inhibition) at 1uM” value was 8.07%.
